# Measurements: paper PMC12136788
# This is one part of the list.
# B1: chr11:78372574:78372575:-_ENSG00000149256_ENST00000278550|hu_mus|FALSE|FALSE (ssRNA)
# RNA: GGGAGUUCUACAGUCCGACGAUCUUUCAUCUGUGUGUGUACGAGCUCGUAGGAGGGUUCCAUGGCAUCUGUGUCUGGCUUGGGAUAGCCAGGUAUCACGUUGUGCAGCUGGAAUCCAAAGGUGAGGAGCCAGCUGUUGACAUCCAACAGAGGAUUGAGCAUCA
# B2: 29097236_29097356_835_3pUTR_ENSMUSG00000024782_ENSMUST00000025696|mouse|control|control (ssRNA)
# RNA: GGGAGUUCUACAGUCCGACGAUCUCUUAGGAAAAGAGCUUUGAGAUACAGAGGCAAGAAGAGGAGAGGAGGCCCUGCCUCAUCCUGCCAGUUGCUGCCCUCUUCAGGGAGUAACAGAGGCCUUUUGGGUAGUUUCUGGAACUUCAACAGAGGAUUGAGCAUCA
# B3: chr11:18503389:18503390:-_ENSG00000074319_ENST00000251968|hu_mus|motif|central (ssRNA)
# RNA: GGGAGUUCUACAGUCCGACGAUCAUUUUCCAUUUUCUCCAGAGCAGAACUUAGUUCUUCAUCCUUCUUUUUCAAAAGUUCGGUGUUUUUAUCAACUUCAGCUACUUCUUGAUCUAAGCGGGUGACCAUCUCUUCCAGUUUCUGCAACAGAGGAUUGAGCAUCA
# B4: 71491005_71491125_2181_3pUTR_ENSG00000131711_ENST00000296755|human|control|control (ssRNA)
# RNA: GGGAGUUCUACAGUCCGACGAUCUCUUCAGGCUUUACCUUUGUUUCCUUUUUCACCGUCUUCUCCUUGGCAGCUUUGGGUUUGACAUCUGUGGCUUGCUUCUCAGCCACCUCGGCUUUCACUGGAGAUGGCUCUUCUUUGCUGCAACAGAGGAUUGAGCAUCA
# B5: chr11:75578393:75578394:+_ENSMUSG00000020849_ENSMUST00000067664|mus_mus|FALSE|FALSE (ssRNA)
# RNA: GGGAGUUCUACAGUCCGACGAUCCAAUACAGUAAUGCUGAAAAAGCCUCUAUGCAGUCCUGUUAGUGUCGUAAAGAACCUAAAGCUGGGACCAGUAAAAUCCACAGAAAUUCACUCUUGCCUUAAGAACUUCUGAAAACUGUUCAACAGAGGAUUGAGCAUCA
# B6: chr15:23003119:23003120:+_ENSG00000068793_ENST00000560848|hu_mus|FALSE|FALSE (ssRNA)
# RNA: GGGAGUUCUACAGUCCGACGAUCUUAUAAAGUUAAGCUUUCAGAUCAAAAGUAGGUUCAGACAUAAUGGAAAAUAGCCCCUAAAAAUUUCAAUAUAGUUUACAUAAAGACAAACAUGCCAUCAGUUACUGGGAUGCUGUGAGCCAACAGAGGAUUGAGCAUCA
# B7: chr7:151048522:151048523:+_ENSG00000013374_ENST00000566856|hu_mus|hu_hu_hu_mus_True|1_8 (ssRNA)
# RNA: GGGAGUUCUACAGUCCGACGAUCCUGUUUCUUAUUUAUUACGAUCUUGAUGUAAUUUUCUUGAAAUCCGAAAGUUUCAGCUAUUUGACACCUCAGGUCUCUACCAGUGACAUGCAAGCGGGUCUCCAACAAGUUUUUCCUAUCCAACAGAGGAUUGAGCAUCA
# B8: chr14:102368134:102368135:+_ENSG00000078304_ENST00000445439|hu_hu|hu_hu_hu_mus_True|68_68 (ssRNA)
# RNA: GGGAGUUCUACAGUCCGACGAUCAAGAGGCUCCAUGAUCUUCACAAACUCUGAUGGUUCAAUUACAUCUAAAAUCUCUUCUAAUUCAUUUAAGAACAUUACUUCUUUUGGACUGUGAGUCUUUGGCCAGUAUUUGAGAAGUGCCAACAGAGGAUUGAGCAUCA
# B9: chr7:43916975:43916976:-_ENSG00000106608_ENST00000402306|hu_hu|FALSE|FALSE (ssRNA)
# RNA: GGGAGUUCUACAGUCCGACGAUCCCCAAACAUGGUGUUGAGGAGUGUGGACUUGCCCGUGCCUGGCACCCCGACGGUUGACAGAACCACCAGCCUUGACCGUCUCUCCAGUCGGACGUGCAGCUCCUUCAGGAGCCCUGUGACCAACAGAGGAUUGAGCAUCA
# B10: chr5:31825596:31825597:-_ENSMUSG00000053134_ENSMUST00000065388|mus_mus|FALSE|FALSE (ssRNA)
# RNA: GGGAGUUCUACAGUCCGACGAUCUAGGAAGUCUAGGCAGUUCCCACAUAAGAAGCAAGCUAAGAUCACUUUAAAAAGGUGCUAGCAAAACUCUAGGACAGACAAUACUCUCCCGCCCUGCCCCAGGAGUGGUAUACGCGGCUGCAACAGAGGAUUGAGCAUCA
# B11: chr2:78760142:78760143:+_ENSMUSG00000027011_ENSMUST00000028398|mus_hu|FALSE|FALSE (ssRNA)
# RNA: GGGAGUUCUACAGUCCGACGAUCGGUCCACUGUCUGGCUAUCCUGUCGUGUUCUGCUCUGUUGGUCAAAUACUGAGUGGCUAUGCUUCCAACCAGAGGAUCCGCAGGGUUGCAGUCUGUCAAAAGGGAACAAAUAGACAGCAACAACAGAGGAUUGAGCAUCA
# B12: 19544922_19545042_2767_3pUTR_ENSMUSG00000030411_ENSMUST00000032571|mouse|control|control (ssRNA)
# RNA: GGGAGUUCUACAGUCCGACGAUCCUUCAUCCCUAUGAUGCCACAGGAAGUGACCUCGAGAUUCCACAGGAAGUACAUGCCUCUGCCAUCUACAGAAGCGACCUUUGAGGCCUUUUGUUGGGACCUCACAGGAAAUGAUUUUCUCAACAGAGGAUUGAGCAUCA
# B13: chr12:57883053:57883054:+_ENSG00000166986_ENST00000262027|hu_hu|FALSE|FALSE (ssRNA)
# RNA: GGGAGUUCUACAGUCCGACGAUCAGUGAGGUCAUCUUGCUCCCAGCCAGAUAACAAAAAAAAAUAUCGGCAGAUUGCACUAGUGGAGAAGAGGUAGUUGCCGCUAUCCAGCUGCAAGACAGGGACCUUAGGCCGGGUCAGGAACAACAGAGGAUUGAGCAUCA
# B14: 38430061_38430181_797_CDS_ENSMUSG00000037458_ENSMUST00000065308|mouse|control|control (ssRNA)
# RNA: GGGAGUUCUACAGUCCGACGAUCACAAGCAAACCCAGUUCCAAGAGCUGCCAAGAUCUCAAGCACGGCUGGAGUGGAGUUGCACUUCACCGUGUAAAACGGCUUUAUCUGAGCCACCACGGUCUGCCACUGACUGUGCUUCUUCAACAGAGGAUUGAGCAUCA
# Target: T1, UNK ZnF1-3 (human, UniProt Q9C0B0 31-174)
# T1 sequence: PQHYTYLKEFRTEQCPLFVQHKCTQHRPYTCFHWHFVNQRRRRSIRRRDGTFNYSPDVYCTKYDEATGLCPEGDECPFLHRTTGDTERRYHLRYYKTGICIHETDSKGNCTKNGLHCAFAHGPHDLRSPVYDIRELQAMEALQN
# Test: nsRBNS (natural sequence RNA bind-n-seq); RBNS binding buffer (assumed for nsRBNS): 25 mM Tris pH 7.5, 150 mM KCl, 3 mM MgCl2, 0.01% Triton X-100, 500 ug/ml BSA, 20 U/ml SUPERase-In, 4 C; UNK is unkempt and MSI1 is Musashi-1; names of the RNAs are library labels; protein concentration not given here; high values mean tight binding
row,Binder,binding signal
1,B1,0.795 enrichment R
2,B2,0.818 enrichment R
3,B3,0.432 enrichment R
4,B4,0.281 enrichment R
5,B5,1.17 enrichment R
6,B6,2.11 enrichment R
7,B7,0.695 enrichment R
8,B8,0.834 enrichment R
9,B9,1.28 enrichment R
10,B10,1.48 enrichment R
11,B11,1.53 enrichment R
12,B12,0.488 enrichment R
13,B13,1.77 enrichment R
14,B14,0.876 enrichment R
